Test results published in PubChem BioAssay (Tox21).
“And” between values parts separate entries of the source, which are not always exact repeats. Identical values can stand only once. Inconclusive means that the source gave no clear call. Such entries were picked first, then a sample of the others. Potencies of inconclusive entries are doubtful fits and often do not repeat. Some compounds were tested as several samples or in several runs, with calls that do not always agree. The source made the active and inactive calls. Unless noted, calls come from the whole dose curve.

Legend:
[1] = qHTS assay for small molecules that induce genotoxicity in human embryonic kidney cells expressing luciferase-tagged ATAD5 (AID 651632; active = well fitted curve in the direction sought with a large enough effect in the repeat runs; inconclusive = weak or mixed curves; inactive = no such curve, though single readings can be large; an effect the other way counts as inactive or inconclusive; note: nearly all actives have a fitted effect of over 15% in size)
How it was run: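 A rise in luciferase signal from ATAD5-tagged HEK293T cells marks genetic stress. Cells were exposed to compounds for 16 hr at 37C, 5% CO2, then luciferase was quantified after a 30 min room-temperature incubation with Amplite.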

[2] = qHTS assay for small molecule disruptors of the mitochondrial membrane potential (AID 720635; active = well fitted curve in the direction sought with a large enough effect in the repeat runs; inconclusive = weak or mixed curves; inactive = no such curve, though single readings can be large; an effect the other way counts as inactive or inconclusive; for ratio activity, negative = MMP loss: % is set by controls: 0 for no effect and ±100 for the full control effect); conditions: HepG2 mitochondrial membrane potential, Mito-MPS dye ratio
How it was run: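 HepG2 cells (2,000/well) attached overnight at 37C, then took compound for 1 hr at 37C, 5% CO2. Mito-MPS dye was added for 30 min; fluorescence was read at 490/535 nm (monomers) and 540/590 nm (aggregates).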

[3] = qHTS assay to test for compound auto fluorescence at 460 nm (blue) in HEK293 cells (AID 720678; active = well fitted curve in the direction sought with a large enough effect in the repeat runs; inconclusive = weak or mixed curves; inactive = no such curve, though single readings can be large; an effect the other way counts as inactive or inconclusive)
How it was run: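 Measured: blue fluorescence (Ex 405/Em 460 nm) of compound-treated HEK293 cells, incubated overnight at 37C with 5% CO2 and scaled to triamterene equivalents.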

[4] = qHTS assay to test for compound auto fluorescence at 460 nm (blue) in HepG2 cell free culture (AID 720685; active = well fitted curve in the direction sought with a large enough effect in the repeat runs; inconclusive = weak or mixed curves; inactive = no such curve, though single readings can be large; an effect the other way counts as inactive or inconclusive)
How it was run: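 Cell-free plates of MEM plus 10% FBS received 23 nL compound or DMSO vehicle; blue-channel (405/460 nm) intensity scored against triamterene as reference fluorophore.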

[5] = qHTS assay to test for compound auto fluorescence at 460 nm (blue) in HepG2 cells (AID 720687; active = well fitted curve in the direction sought with a large enough effect in the repeat runs; inconclusive = weak or mixed curves; inactive = no such curve, though single readings can be large; an effect the other way counts as inactive or inconclusive)
How it was run: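 Cells (2,000/well in MEM with 10% FBS) attached overnight at 37 C, then were exposed to compound or DMSO for 1 hr at 37 C, 5% CO2. Fluorescence read at Ex/Em 405/460 nm, expressed as triamterene-equivalent signal.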

[6] = target: Glucocorticoid receptor (Homo sapiens) (UniProt P04150); assay: qHTS assay to identify small molecule antagonists of the glucocorticoid receptor (GR) signaling pathway (AID 720692; active = well fitted inhibition curve with a large enough effect in the signal ratio in the repeat runs, not every such curve was filed as active; inconclusive = weak or mixed curves, or effect the other way; inactive = no such curve, though single readings can be large or run the other way; the % refers to the signal ratio; for activity change, negative = inhibition: % is set by controls: 0 for no effect and ±100 for the full control effect); conditions: GR-bla HeLa, beta-lactamase FRET ratio, dexamethasone-stimulated, 18 h; activity change, negative = inhibition: at 58.5 µM (top of the series) unless noted
How it was run: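 Inhibition of dexamethasone-driven (5 nM final) beta-lactamase expression was measured in GRE-reporter HeLa cells over 18 h at 37C. Fluorescence was read after 2 h with the B/G FRET substrate at room temperature.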

[7] = qHTS assay for small molecule agonists of the p53 signaling pathway - cell viability (AID 651633); note: nearly all actives have a fitted effect of over 30% in size
How it was run: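 p53RE-bla cells, seeded at 4,000 per well and rested 5 h at 37 C/5% CO2, received compounds in DMSO for 16 h at 37 C. CellTiter-Glo was then added, and luminescence was read after 30 min at room temperature to gauge cytotoxicity.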

[8] = qHTS assay for small molecules that induce genotoxicity in human embryonic kidney cells expressing luciferase-tagged ATAD5 - cell viability (AID 651634); note: nearly all actives have a fitted effect of over 25% in size
How it was run: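 Cytotoxicity counter-readout: after 15.5 hr compound treatment at 37C, live-cell protease activity in ATAD5-luciferase HEK293T cells measured by CellTiter-Fluor fluorescence, 30 min development at 37C.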

[9] = qHTS assay for small molecule disruptors of the mitochondrial membrane potential - cell viability (AID 720634); note: nearly all actives have a fitted effect of over 20% in size
How it was run: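 Cytotoxicity was quantified from ATP content by CellTiter-Glo luminescence in the same wells as the MMP dye read-out. HepG2 (2,000 cells/well) were plated overnight and exposed to compounds for 1 hr at 37 C.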

[10] = target: Glucocorticoid receptor (Homo sapiens) (UniProt P04150); assay: qHTS assay to identify small molecule agonists of the glucocorticoid receptor (GR) signaling pathway (AID 720691; active = well fitted activation curve with a large enough effect in the signal ratio in the repeat runs, not every such curve was filed as active; inconclusive = weak or mixed curves, or effect the other way; inactive = no such curve, though single readings can be large or run the other way; the % refers to the signal ratio; for activation: % is set by controls: 0 for no effect and ±100 for the full control effect); conditions: GR-bla HeLa, beta-lactamase reporter ratio, 18 h; activation: at 62.4 µM (top of the series) unless noted
How it was run: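 Agonist-mode qHTS in HeLa cells stably expressing a glucocorticoid-response-element beta-lactamase reporter. Fluorescence intensity read with FRET substrate (2 h, room temperature) after 18 h compound treatment at 37 C.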

[11] = ratio activity, negative = MMP loss: at 83.2 µM (top of the series) unless noted
Potency is the fitted concentration of half-maximal effect; tags give direction and shape of the fitted curve or compound fluorescence and quenching.

UniProt P04150, sequence (P04150 whole entry, looked up): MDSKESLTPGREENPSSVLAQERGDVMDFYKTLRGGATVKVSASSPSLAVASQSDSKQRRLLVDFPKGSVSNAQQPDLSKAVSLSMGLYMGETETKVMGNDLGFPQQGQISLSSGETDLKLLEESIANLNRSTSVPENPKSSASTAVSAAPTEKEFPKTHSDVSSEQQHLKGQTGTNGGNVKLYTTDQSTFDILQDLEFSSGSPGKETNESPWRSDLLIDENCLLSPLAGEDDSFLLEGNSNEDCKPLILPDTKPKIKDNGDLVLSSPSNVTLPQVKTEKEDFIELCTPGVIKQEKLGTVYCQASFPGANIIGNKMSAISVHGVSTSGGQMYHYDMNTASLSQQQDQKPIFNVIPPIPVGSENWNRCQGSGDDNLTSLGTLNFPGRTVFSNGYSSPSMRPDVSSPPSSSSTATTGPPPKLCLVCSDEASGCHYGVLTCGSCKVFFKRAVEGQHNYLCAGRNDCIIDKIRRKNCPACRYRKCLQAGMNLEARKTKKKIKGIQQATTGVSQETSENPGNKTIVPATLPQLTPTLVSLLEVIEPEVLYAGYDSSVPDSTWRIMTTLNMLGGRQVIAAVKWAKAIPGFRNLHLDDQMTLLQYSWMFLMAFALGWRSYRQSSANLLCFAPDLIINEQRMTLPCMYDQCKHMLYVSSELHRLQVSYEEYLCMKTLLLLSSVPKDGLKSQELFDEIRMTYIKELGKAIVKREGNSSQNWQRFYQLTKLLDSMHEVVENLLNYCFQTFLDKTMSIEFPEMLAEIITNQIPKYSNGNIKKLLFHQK

O=c1oc2cc(O)ccc2c2oc3cc(O)ccc3c12
Potency [1]: inconclusive: 58.6 µM [activator, partial curve, poor fit]
Potency [2, 11]: active: 58.6 µM
Potency [3]: inconclusive: 3.98 µM [fluorescent, full curve]
Potency [4]: inconclusive: 5.62 µM [fluorescent, full curve]
Potency [5]: inconclusive: 7.94 µM [fluorescent, partial curve]
activity change, negative = inhibition [6]: inconclusive: 30.2%

CCCCC(CC)COP(=O)(O)OCC(CC)CCCC (centres undefined)
Potency [7]: active: 61.3 µM and active: 27.3 µM
Potency [8]: inconclusive: 54.6 µM [falling, partial curve]
Potency [9]: inconclusive: 48.7 µM [cytotoxic, partial curve]
Potency [2, 11]: inconclusive: 77 µM [inhibitor, partial curve, poor fit]
Potency [6]: active: 49.1 µM

CC(Cc1cccc(C(F)(F)F)c1)NCCOC(=O)c1ccccc1 (centres undefined)
Potency [7]: inconclusive: 33.5 µM [cytotoxic, single point]
Potency [8]: inconclusive: 33.5 µM [falling, partial curve, poor fit]
Potency [2, 11]: inconclusive: 6.68 µM [activator, full curve]
Potency [6]: inactive

CCN(CC)c1ccc(C(=C2C=CC(=[N+](CC)CC)C=C2)c2ccc(S(=O)(=O)O)cc2S(=O)(=O)[O-])cc1
Potency [8]: active: 27.3 µM
Potency [9]: inconclusive: 30.6 µM [cytotoxic, partial curve]
ratio activity, negative = MMP loss [2, 11]: inconclusive: 29.5%

CC(Oc1cc(Cl)ccc1Cl)C(=O)O (centres undefined)
Potency [7]: inactive
Potency [2, 11]: inconclusive: 48.6 µM
activity change, negative = inhibition [6]: inconclusive: 2.21%

CCCOC(C)=O
Potency [7]: inconclusive: 26.8 µM [cytotoxic, single point]
ratio activity, negative = MMP loss [2, 11]: inconclusive: -5.08%

CCCCc1nc2cccnc2n1Cc1ccc(-c2ccccc2-c2nnn[nH]2)cc1
Potency [8]: inconclusive: 61.1 µM [falling, partial curve, poor fit]
Potency [9]: inconclusive: 54.5 µM [cytotoxic, partial curve, poor fit]
Potency [2, 11]: inconclusive: 30.6 µM [rising, partial curve]
activity change, negative = inhibition [6]: inconclusive: -36.4%

Oc1cccc2cc3cccc(O)c3c(O)c12
Potency [8]: inactive
Potency [2, 11]: inconclusive: 15.4 µM [inhibitor, full curve, poor fit]

CC(C)OC=O
Potency [7]: inactive
Potency [2, 11]: inactive
Potency [6]: inactive

Cc1cccc(Nc2cc(Cl)nc(SCC(=O)O)n2)c1C
Potency [8]: inactive
ratio activity, negative = MMP loss ([2]; at 83.2 µM (top of the series)): inactive: -7.26%
Potency [2, 11]: inconclusive: 1.58 µM [activator, full curve, poor fit]
ratio activity, negative = MMP loss [2, 11]: inconclusive: 31.8%
activity change, negative = inhibition [6]: inconclusive: -26.5%

C=CC(C)(O)CC/C=C(/C)CCC=C(C)C (centres undefined)
Potency [8]: inactive
Potency [2, 11]: inactive

CCCCC(CC)COP(=O)(OCC(CC)CCCC)OCC(CC)CCCC (centres undefined)
Potency [7]: inactive
ratio activity, negative = MMP loss ([2]; at 95.3 µM (top of the series)): inactive: 15.5%
ratio activity, negative = MMP loss [2, 11]: inconclusive: 53.8%
Potency [6]: inactive

CCN(CC)C(=O)N1CCN(C)CC1
Potency [7]: inactive
Potency [10]: active: 10.2 µM

CCC(Cl)C(Cl)C(Cl)CC(Cl)C(Cl)C(C)Cl (centres undefined)
Potency [7]: inconclusive: 68.6 µM [cytotoxic, single point]
Potency [2, 11]: active: 24.3 µM
Potency [6]: inconclusive: 49 µM [inhibitor, partial curve]

CN(Cc1ccc(C(C)(C)C)cc1)Cc1cccc2ccccc12
Potency [7]: inconclusive: 33.5 µM [cytotoxic, partial curve, poor fit]
ratio activity, negative = MMP loss ([2]; at 83.2 µM (top of the series)): inactive: -5.46%
ratio activity, negative = MMP loss [2, 11]: inconclusive: -29%
Potency [6]: inactive

Nc1ccccc1Nc1ccccc1
Potency [8]: inconclusive: 27.4 µM [falling, partial curve, poor fit]
Potency [2, 11]: inconclusive: 0.244 µM [inhibitor, single point]

N#Cc1ccccc1O
Potency [8]: inactive
ratio activity, negative = MMP loss [2, 11]: inconclusive: -34.1%

C/C=C1/C(=O)C[C@H]2[C@@H]3CCC4=CC(=O)CC[C@]4(C)[C@H]3CC[C@]12C
Potency [7]: inconclusive: 68.4 µM [cytotoxic, single point]
Potency [2, 11]: inactive

CCOC(=O)c1ccc(OC(=O)CCCCCN=C(N)N)cc1
Potency [8]: inactive
Potency [2, 11]: inactive

CCCCOc1ccc(CC(=O)NO)cc1
Potency [8]: active: 9.02 µM
ratio activity, negative = MMP loss [2, 11]: inconclusive: 2.58% [at 39.1 µM]

CCCCCCCCCCCC[N+](C)(C)C
Potency [7]: inconclusive: 68.4 µM [cytotoxic, single point] and inconclusive: 68.6 µM [cytotoxic, single point]
Potency [2, 11]: inconclusive: 68.4 µM [inhibitor, single point] and inconclusive: 68.6 µM [inhibitor, single point] and active: 61.1 µM
Potency [10]: inconclusive: 54.8 µM [cytotoxic, single point] and inconclusive: 43.6 µM [cytotoxic, single point]

COC1=C(OC)C(=O)C(CCCCCCCCCCO)=C(C)C1=O
Potency [7]: active: 29.8 µM
Potency [2, 11]: inconclusive: 7.5 µM [activator, full curve]

Cc1ccc(C)c(O)c1C
Potency [7]: inactive
Potency [2, 11]: inactive

OC1CCCCCCCCCCC1
Potency [8]: inconclusive: 68.6 µM [falling, single point]
Potency [9]: inconclusive: 69.2 µM [cytotoxic, partial curve, poor fit]
Potency [2, 11]: active: 55 µM and active: 54.5 µM

Cc1cnc(NC(=O)C2=C(O)c3ccccc3S(=O)(=O)N2C)s1
Potency [8]: inconclusive: 18.8 µM [falling, partial curve, poor fit] and inconclusive: 3.86 µM [falling, partial curve, poor fit]

Oc1c(Cl)cc(Cl)cc1Sc1cc(Cl)cc(Cl)c1O
Potency [8]: inconclusive: 27.8 µM [falling, partial curve, poor fit]
Potency [9]: inconclusive: 10.6 µM [cytotoxic, partial curve, poor fit] and active: 13.7 µM and inconclusive: 22 µM [cytotoxic]

c1ccc2sc(SSN3CCOCC3)nc2c1
Potency [8]: inconclusive: 34.3 µM [falling, partial curve]
Potency [9]: inconclusive: 76.8 µM [cytotoxic, partial curve, poor fit]
Potency [2, 11]: active: 34.3 µM and active: 27.3 µM

C=C(C)C(=O)OCC(C)O (centres undefined)
Potency [7]: inactive
ratio activity, negative = MMP loss ([2]; at 83.2 µM (top of the series)): inconclusive: 9.52%
ratio activity, negative = MMP loss ([2]; at 95.3 µM (top of the series)): inconclusive: 19.2%
Potency [2, 11]: inconclusive: 67.1 µM [rising, partial curve, poor fit]

CCCCC(CC)C(=O)O (centres undefined)
Potency [7]: inconclusive: 27.4 µM [cytotoxic, single point]
Potency [2, 11]: inactive and inconclusive: 1.24 µM [activator, single point] and active: 6.86 µM

CC1=NN(c2ccc(S(=O)(=O)O)cc2)C(=O)C1N=Nc1ccccc1 (centres undefined)
Potency [8]: inconclusive: 27.3 µM [falling, partial curve]
ratio activity, negative = MMP loss [2, 11]: inconclusive: 40.9%

Cc1ccc(NC(=O)c2ccc(CN3CCN(C)CC3)cc2)cc1Nc1nccc(-c2cccnc2)n1
Potency [8]: inconclusive: 21.1 µM [falling, partial curve]
Potency [2, 11]: active: 2.11 µM

Cn1c(=O)c2[nH]c(Br)nc2n(C)c1=O
Potency [8]: inconclusive: 13.3 µM [falling, partial curve]
Potency [2, 11]: inconclusive: 0.668 µM [activator, single point]

CC(=O)C(C)O (centres undefined)
Potency [8]: inactive
Potency [2, 11]: inactive

CC1=CC2C3CC(C=C3C)C2C1 (centres undefined)
Potency [8]: inconclusive: 43.3 µM [falling, partial curve, poor fit]
ratio activity, negative = MMP loss ([2]; at 83.2 µM (top of the series)): inactive: 3.92%
ratio activity, negative = MMP loss [2, 11]: inconclusive: -6.49%
Potency [10]: inactive
activity change, negative = inhibition [6]: inconclusive: -53.4%

C=C(C)C(=O)OCCCCCCOC(=O)C(=C)C
Potency [7]: inactive
Potency [2, 11]: inactive
activity change, negative = inhibition [6]: inconclusive: -19.8%

CCCCCCCCCCCC[N+](C)(C)Cc1ccccc1
Potency [8]: inconclusive: 10.6 µM [falling, partial curve]
Potency [9]: inconclusive: 67.3 µM [cytotoxic, partial curve, poor fit] and inconclusive: 83.6 µM [cytotoxic, single point]
Potency [2, 11]: active: 8.41 µM and active: 19 µM and active: 21 µM

O=C1NCCN1CCN1CCC(c2cn(-c3ccc(F)cc3)c3ccc(Cl)cc23)CC1
Potency [8]: active: 29.8 µM
Potency [2, 11]: inconclusive: 7.5 µM [activator, full curve] and inconclusive: 6.68 µM [activator, full curve]

O=C(O)c1cc(O)c2c(c1)C(=O)c1cccc(O)c1C2=O
Potency [8]: inconclusive: 12.6 µM [falling, partial curve, poor fit]
Potency [2, 11]: active: 2.51 µM

CC(C)c1ccc2ncccc2c1
Potency [7]: inconclusive: 0.0054 µM [cytotoxic, full curve, poor fit]
Potency [2, 11]: inconclusive: 34.4 µM [rising, partial curve, poor fit]

CN(C)c1ccc2nc3ccc(=[N+](C)C)cc-3sc2c1
Potency [7]: active: 3.35 µM and inconclusive: 8.29 µM [cytotoxic, partial curve, poor fit] and inconclusive: 21.7 µM [cytotoxic, partial curve]
Potency [10]: inconclusive: 16.9 µM [cytotoxic, partial curve]
activation [10]: inconclusive: 6.52% [phenotype inactive] and inconclusive: 10.4%
Potency [6]: inconclusive: 10.7 µM [inhibitor, partial curve] and inconclusive: 2.36 µM [activator, partial curve]
activity change, negative = inhibition [6]: inconclusive: -1.96%
